Test results as given in PMC4336329 (PLoS ONE, 2015).
The whole screen tested about 310,000 compounds, of which about 2,200 (0.71%) showed an effect of 50% or more. The effect is printed as a negative number. Some of the results follow. Where a SMILES comes first, the peptide text is derived from it. The star is where a group is joined. Cbz = O=C(OCc1ccccc1)*

The molecules below were run against human ether-à-go-go-related gene (hERG) potassium channel (human, UniProt Q12809) (assay: primary screen, population patch clamp on CHO cells stably expressing hERG).
human ether-à-go-go-related gene (hERG) potassium channel, sequence (Q12809 whole entry, looked up): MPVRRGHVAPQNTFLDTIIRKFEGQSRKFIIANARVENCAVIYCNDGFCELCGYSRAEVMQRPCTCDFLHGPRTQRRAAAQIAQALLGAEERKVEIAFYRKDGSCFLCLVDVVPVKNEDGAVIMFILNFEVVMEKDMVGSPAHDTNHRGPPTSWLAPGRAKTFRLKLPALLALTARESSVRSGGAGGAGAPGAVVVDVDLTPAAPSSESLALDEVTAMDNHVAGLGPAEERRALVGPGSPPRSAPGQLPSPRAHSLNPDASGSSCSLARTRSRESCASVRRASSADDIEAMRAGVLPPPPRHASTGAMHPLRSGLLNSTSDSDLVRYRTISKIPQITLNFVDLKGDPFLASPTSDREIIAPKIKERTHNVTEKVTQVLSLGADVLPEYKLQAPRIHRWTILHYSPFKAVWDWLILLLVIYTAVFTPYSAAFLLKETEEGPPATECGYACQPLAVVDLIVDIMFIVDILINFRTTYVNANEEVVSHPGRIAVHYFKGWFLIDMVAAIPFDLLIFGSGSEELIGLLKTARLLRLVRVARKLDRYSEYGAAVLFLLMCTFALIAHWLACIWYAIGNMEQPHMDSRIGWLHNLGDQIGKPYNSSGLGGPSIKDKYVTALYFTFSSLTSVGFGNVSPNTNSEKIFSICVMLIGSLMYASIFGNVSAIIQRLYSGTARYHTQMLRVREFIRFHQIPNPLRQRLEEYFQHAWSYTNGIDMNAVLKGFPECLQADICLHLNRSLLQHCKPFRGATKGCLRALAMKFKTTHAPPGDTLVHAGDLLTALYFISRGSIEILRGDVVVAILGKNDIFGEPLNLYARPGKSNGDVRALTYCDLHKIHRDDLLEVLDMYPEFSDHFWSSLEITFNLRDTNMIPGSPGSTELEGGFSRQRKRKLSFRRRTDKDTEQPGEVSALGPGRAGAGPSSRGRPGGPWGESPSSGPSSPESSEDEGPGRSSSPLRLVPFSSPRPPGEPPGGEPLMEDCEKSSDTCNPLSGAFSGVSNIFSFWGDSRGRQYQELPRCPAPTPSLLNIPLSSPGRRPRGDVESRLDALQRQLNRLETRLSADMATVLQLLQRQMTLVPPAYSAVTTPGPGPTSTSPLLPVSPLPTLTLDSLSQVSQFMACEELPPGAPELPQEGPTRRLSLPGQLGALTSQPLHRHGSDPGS

Compound	hERG current change (%, negative = inhibition) at 1uM [%]
CC(C)c1ccc(C(=O)N2CCN(CCO)CC2)cc1.Cl	12.7
CN1CCN(S(=O)(=O)c2ccc(Cl)nc2)CC1	8.63
COc1cc(OC)c(C(=O)N/N=C/c2ccoc2)cc1OC	11
O=c1[nH]cc(O)c(=O)[nH]1	11.8
Cc1cccc(OCC(=O)N/N=C2/SCC(=O)N2Cc2ccco2)c1	5.41
CC(CNC(=O)C1CCCN(S(=O)(=O)N2CCOCC2)C1)c1ccccc1 (stereo not drawn)	13.2
COc1ccc(/C=N\NC(=O)c2cc(O)c(O)c(O)c2)cc1COc1ccc(C(=O)OCC(C)C)cc1	13.3
CC(=O)N1CCN=C1SCc1ccccc1Cl	14.8
CN(C1CCCCC1)S(=O)(=O)c1ccc2c(c1)c(=O)c(C(=O)N1CCc3ccccc3C1)cn2C	1.11
COC(=O)C(CO)NC(=O)C1CCCN1C(=O)CNC(=O)OCc1ccccc1 (stereo not drawn) (Cbz-Gly-Pro-Ser-OMe; configuration not given here)	16.5
CCc1c(C)nc2ncnn2c1Nc1ccc(C)cc1	7.86
CC(=O)c1ccc(OCc2cc(C(=O)N3CCOCC3)no2)cc1	16.5
Cc1cccc(-c2ncc(CN3CCCC(CO)(Cc4ccccc4C)C3)cn2)c1 (stereo not drawn)	11.1
CC1(C)O[C@@H]2C[C@H]3[C@@H]4CCC5=CC(=O)C=C[C@]5(C)[C@@]4(F)[C@@H](O)C[C@]3(C)[C@]2(C(=O)CO)O1	16.7
Cc1cc2ccccn2c1C(=O)c1nc(N2CCOCC2)ncc1Cl	-4.06
COc1ccc(C(=O)NC(=S)N2CCN(C)CC2)cc1Br	7.4
O=C(NC(=S)Nc1cccc(Cl)c1N1CCCC1)c1ccc(-c2cccc([N+](=O)[O-])c2)o1	13.3
Cc1ccc(C(=O)O/N=C(/c2nonc2N)N(C)C)cc1	1.98
Nn1c(SCc2cccc(Br)c2)nnc1-c1cccnc1	11.9
C/C(=N\n1cnnc1)c1ccc(C#N)cc1	13.6
Cc1onc(-c2ccccc2)c1C(O)c1ccc(F)cc1 (stereo not drawn)	11.8
Cc1nn(CC(=O)NCC(C)c2ccccc2)c(=O)c2cc3occc3n12 (stereo not drawn)	4.72
CCNC(=S)N1CCN(c2ncccn2)CC1	10.6

Compound	hERG current change (%, negative = inhibition) at 1uM [%]
CCc1ccccc1-n1nnnc1SCC(=O)Nc1ccc(N2CCN(C)CC2)cc1	-3.2
Cc1ccc(N=C2NC(=O)CS2)cc1C	10.6
COc1ccc2[nH]c3c(=O)n(CCCC(=O)NC4CCCCC4C)c(=S)[nH]c3c2c1 (stereo not drawn)	2.65
COc1ccc(-c2nnc3sc(-c4cccs4)nn23)cc1OC	6.62
Cc1cc2nc(CSc3ccc(Cl)cc3)cc(=O)n2[nH]1	9.14
Cc1ccc(S(=O)(=O)N(CC(=O)NCCC2=CCCCC2)Cc2ccccc2F)cc1	6.21
Fc1cccc(Oc2nc3ccccc3n3cccc23)c1	13.9
Cc1ccc(SCc2noc(C(=O)NCC3CCCO3)c2C(=O)O)cc1C (stereo not drawn)	10.2
O=C(NCCCN1CCCC1=O)c1cccnc1	14.3
COc1ccc(O)c(/C=N/NC(=O)CCC(=O)Nc2ccc(F)cc2)c1	16.3
Cc1[nH]c2ccccc2c1/C=N/NC(=O)c1ccc(N)cc1	14.8
CCOc1cc(S(=O)(=O)NC2CC(C)(C)NC(C)(C)C2)ccc1Cl	11.2
CCCCn1c(N)c(N(Cc2ccccc2OC)C(=O)CN2C(=O)NC(C)(c3ccccc3)C2=O)c(=O)[nH]c1=O (stereo not drawn)	22.4
O=C(N/N=C\c1ccccn1)C1c2ccccc2Oc2ccccc21	8.15
CN(C)c1ccc(C(=S)N2CCN(C(=S)Nc3ccc(Cl)cc3)CC2)cc1	15.2
COc1ccccc1N1CCN(C(=O)C(NS(=O)(=O)c2cccs2)c2ccccc2)CC1 (stereo not drawn)	-10.8
O=C(COC(=O)COc1ccc(Cl)cc1Cl)NC1CCCCCC1	10.1
COc1c2c(cc3oc(C)cc(=O)c13)OC(C(C)(C)OC1OC(CO)C(O)C(O)C1O)C2 (stereo not drawn)	15.7
COc1ccc(N(CC(=O)Nc2ccccc2OC)S(=O)(=O)c2ccc(NC(C)=O)cc2)cc1	10
COc1cc(C)c(-c2[nH]ncc2-c2csc(C)n2)c(O)c1	5.51
COc1ccc(C)cc1NC(=O)NCc1ccco1	13.8
C=C(C)Cn1c(-c2cccc([N+](=O)[O-])c2)n[nH]c1=S	6.8
NC(=O)NC(=O)C(OC(=O)CCNS(=O)(=O)c1ccccc1)c1ccccc1 (stereo not drawn)	-3.71

Compound	hERG current change (%, negative = inhibition) at 1uM [%]
CCN(CC)C(=S)Sc1c(-c2ccccc2)c2cc(Cl)ccc2[nH]c1=O	7.37
COc1ccc(OC)c(NC(=O)CCN2CCCCCC2)c1.Cl	8.93
CCCN1C(=O)c2ccc(C(=O)NC3CCCCC3)cc2C1=O	10.7
CCOc1ccc(NC(=O)c2ccco2)cc1	5.89
O=C1NN(c2cccc(Br)c2)C(=O)/C1=C\c1ccc(O)cc1	6.83
O=C(CCNS(=O)(=O)c1ccccc1)N1CCCC1	11.5
O=C(O)Cn1cc(C(=O)C(F)(F)F)c2ccccc21	19.6
COc1ccc(-n2nnnc2SCC(=O)NCc2ccco2)cc1OC	1.13
CCN(CC)S(=O)(=O)c1ccc(OC)c(NC(=O)c2ccc(OC)c([N+](=O)[O-])c2)c1	3
CCOc1c(Cl)cc(/C=C/C(=O)N(CC)CC(=O)Nc2ccc(NC(C)=O)cc2)cc1OC	3.18
O=C1C(Cl)=C(N2CCCCC2)C(=O)N1c1ccccc1Cl	10.1
O=C(COC(=O)c1ccccc1Nc1ccc(SC(F)F)cc1)NCc1ccco1	15.3
NC(=O)c1ccccc1OCC(=O)Nc1ccc2c(c1)CCC2	8.55
COc1ccc2c(c1)CCCN2S(=O)(=O)c1ccc(Cl)cc1	12.4
O=C1CN(C(=O)OCc2ccccc2)c2ccccc2N1	10.1
COC(=O)C(C)C1Sc2ccccc2NC1=O (stereo not drawn)	5.04
COc1ccccc1OCCC(=O)Nc1nc(C)cs1	7.48
COc1ccc(S(=O)(=O)CCC(=O)N2CC(=O)N(CCc3ccccc3)C(=O)C2)cc1	5.42
CCC(=NCCc1ccc(OC)c(OC)c1)C1=C(O)CC(C)(C)CC1=O	24.6
O=C(COC(=O)C1CCCCC1)Nc1ccccc1OC(F)F	12.3
O=C(Nc1ccc2sccc2c1)c1cccc(N2C(=O)CCC2=O)c1	7.56
Cc1ccc(C(=O)Nc2nc(=O)n(C(=O)CC(C)C)s2)cc1	23.8
Cc1ccc(C(C)C)c(OCC(=O)NNC(=O)Nc2ccccc2)c1	9.86

Compound	hERG current change (%, negative = inhibition) at 1uM [%]
CCOc1ccc(NC(=O)CN(C)C(=O)C2=COCCO2)cc1OCC	2.56
COc1cc(/C=C/C(=O)O)cc(S(=O)(=O)N(C)CCO)c1OC	-4.59
CCOC(=O)C(NC(=O)c1ccccc1Cl)(Nc1ccc(C)c(C)c1)C(F)(F)F (stereo not drawn)	13
COc1ccc(N(C)S(=O)(=O)c2ccc3c(c2)CCC(=O)N3)cc1	0.558
COC(=O)c1cccc(OC(N)=O)c1	6.84
CCCc1nnc(NC(=O)C(CC)OC(=O)c2cc(C)nc3ccccc23)s1 (stereo not drawn)	1.69
COCCNC(=O)CCCCCNS(=O)(=O)c1ccc(C)cc1	5.2
Cc1cc(C)cc(OCC(=O)Nc2ccc(N3CCN(S(C)(=O)=O)CC3)cc2)c1	7
Cc1ccnc(NC(=O)COc2c(C)cc(C)cc2[N+](=O)[O-])c1	14.1
COc1ccc(C2c3[nH]c4ccccc4c3C[C@H]3C(=O)N(CC(C)C)CC(=O)N23)c(OC)c1 (stereo partly drawn)	7.71
Cc1ccc(C(=O)Nn2cnc3scc(-c4cccs4)c3c2=O)c(O)c1	11.3
Cc1ccc(C(=O)CN2C(=O)NC3(CCCCCC3)C2=O)c(C)c1	12.2
CN(Cc1cnn(-c2ccccc2)c1)C(=O)C1CCC(=O)N(C2CC2)C1 (stereo not drawn)	4.92
COc1cc2ccccc2cc1C(=O)Nc1ccc(Br)cn1	16.7
Clc1cccc(/C=N/Nc2ncnc3ccccc23)c1	0.2
CN(CC(=O)Nc1ccccc1Cl)CC(=O)Nc1ccccc1[N+](=O)[O-]	-4.33
CC(C1CC2CCC1C2)n1c(COc2ccccc2F)nnc1SCC(N)=O (stereo not drawn)	-1.9
CC(=O)c1c(C)[nH]c2ccccc2c1=O	2.73
CCCCNC(=O)c1ccc(S(=O)(=O)c2ccc(Cl)cc2)c(NC(C)=O)c1	1.98
COc1ccc(CN2CCN(Cc3c[nH]c4ccccc34)CC2CCO)c(F)c1 (stereo not drawn)	-5.04
COc1cc(C(=O)OCc2cc3ccccc3[nH]c2=O)cc(OC)c1OC	4.2
